Results: the supplement of paper PMC10369915
This is one part of the list. Cut-off read from the data, not from the text of the source: active = 3.2 or more and inactive = the rest. Only a few entries rise above the background.

What was measured:
Assay in all cases: enrichment score (SH2-bound / input frequency) (ratio); bacterial display of known human phosphotyrosine sites (pTyr-Var adds point mutants) read by sequencing; higher = stronger binding; tyrosines were phosphorylated by kinases first
Conditions in all cases: peptide library: pTyr-Var
SHP2 C-SH2 domain E139D = molecular target: SHP2 C-SH2 domain E139D
[1] = molecular target: SHP2 C-SH2 domain wild-type
SHP2 N-SH2 domain L43F = molecular target: SHP2 N-SH2 domain L43F
SHP2 N-SH2 domain T42A = molecular target: SHP2 N-SH2 domain T42A
SHP2 N-SH2 domain T52S = molecular target: SHP2 N-SH2 domain T52S
[2] = molecular target: SHP2 N-SH2 domain wild-type

Measured: enrichment score
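Note: displayed peptides selected on beads carrying the immobilized SH2 domain, with library peptides lacking any tyrosine serving as negative controls.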

B1: FGFR3_Y648_D646N (peptide)
chain: HNLNYYKKTTN
inactive: SHP2 C-SH2 domain E139D 0.291 | [1] 0.107 | SHP2 N-SH2 domain L43F 0.113 | SHP2 N-SH2 domain T42A 0.269 | SHP2 N-SH2 domain T52S 0.261 | [2] 0.438

B2: FGFR1_Y730_C725Y_YF (peptide)
chain: FTNELYMMMRD
inactive: SHP2 C-SH2 domain E139D 1.04 | [1] 0.877 | SHP2 N-SH2 domain L43F 1.04 | SHP2 N-SH2 domain T42A 1.05 | SHP2 N-SH2 domain T52S 1.06 | [2] 0.985

B3: FGFR3_Y647_D646N_YF (peptide)
chain: VHNLNYFKKTT
inactive: SHP2 C-SH2 domain E139D 0.509 | [1] 0.481 | SHP2 N-SH2 domain L43F 0.519 | SHP2 N-SH2 domain T42A 0.55 | SHP2 N-SH2 domain T52S 0.454 | [2] 0.335

B4: FGFR3_Y648_K650M_YF (peptide)
chain: HNLDFYKMTTN
inactive: SHP2 C-SH2 domain E139D 1.27 | [1] 1.15 | SHP2 N-SH2 domain L43F 1.09 | SHP2 N-SH2 domain T42A 0.781 | SHP2 N-SH2 domain T52S 1.01 | [2] 0.903

B5: FGFR3_Y648 (peptide)
chain: HNLDYYKKTTN
inactive: SHP2 C-SH2 domain E139D 0.818 | [1] 0.633 | SHP2 N-SH2 domain L43F 0.613 | SHP2 N-SH2 domain T42A 0.847 | SHP2 N-SH2 domain T52S 0.54 | [2] 0.904

B6: FGFR1_Y776_P772S (peptide)
chain: MSLDQYSPSFP
inactive: SHP2 C-SH2 domain E139D 0.793 | [1] 0.858 | SHP2 N-SH2 domain L43F 0.633 | SHP2 N-SH2 domain T42A 0.628 | SHP2 N-SH2 domain T52S 0.742 | [2] 0.685

B7: FGFR3_Y647_D646N (peptide)
chain: VHNLNYYKKTT
inactive: SHP2 C-SH2 domain E139D 0.369 | [1] 0.574 | SHP2 N-SH2 domain L43F 0.557 | SHP2 N-SH2 domain T42A 0.693 | SHP2 N-SH2 domain T52S 0.683 | [2] 0.596

B8: FGFR2_Y616 (peptide)
chain: ARGMEYLASQK
inactive: SHP2 C-SH2 domain E139D 0.79 | [1] 0.682 | SHP2 N-SH2 domain L43F 0.857 | SHP2 N-SH2 domain T42A 0.741 | SHP2 N-SH2 domain T52S 0.531 | [2] 0.786

B9: FGFR2_Y608_G613R (peptide)
chain: LVSCTYQLARR
inactive: SHP2 C-SH2 domain E139D 0.289 | [1] 0.335 | SHP2 N-SH2 domain L43F 0.266 | SHP2 N-SH2 domain T42A 0.152 | SHP2 N-SH2 domain T52S 0.316 | [2] 0.205

B10: FGFR3_Y647_K650M_YF (peptide)
chain: VHNLDYFKMTT
inactive: SHP2 C-SH2 domain E139D 1.2 | [1] 1.07 | SHP2 N-SH2 domain L43F 0.896 | SHP2 N-SH2 domain T42A 1.2 | SHP2 N-SH2 domain T52S 1.09 | [2] 0.835

B11: FGFR2_Y657_K659N_YF (peptide)
chain: NNIDFYKNTTN
inactive: SHP2 C-SH2 domain E139D 0.762 | [1] 0.641 | SHP2 N-SH2 domain L43F 0.544 | SHP2 N-SH2 domain T42A 0.494 | SHP2 N-SH2 domain T52S 0.719 | [2] 0.726

B12: FGFR2_Y657 (peptide)
chain: NNIDYYKKTTN
inactive: SHP2 C-SH2 domain E139D 0.46 | [1] 0.545 | SHP2 N-SH2 domain L43F 0.511 | SHP2 N-SH2 domain T42A 0.298 | SHP2 N-SH2 domain T52S 0.658 | [2] 0.349

B13: FGFR1_Y654_K656E_YF (peptide)
chain: HHIDFYKETTN
inactive: SHP2 C-SH2 domain E139D 1.4 | [1] 1.21 | SHP2 N-SH2 domain L43F 1.22 | SHP2 N-SH2 domain T42A 1.05 | SHP2 N-SH2 domain T52S 1.47 | [2] 1.41

B14: FGFR1_Y654_K656E (peptide)
chain: HHIDYYKETTN
inactive: SHP2 C-SH2 domain E139D 1.37 | [1] 1.18 | SHP2 N-SH2 domain L43F 1.13 | SHP2 N-SH2 domain T42A 1.2 | SHP2 N-SH2 domain T52S 1.52 | [2] 1.14

B15: FGFR3_Y647_K650E_YF (peptide)
chain: VHNLDYFKETT
inactive: SHP2 C-SH2 domain E139D 0.703 | [1] 0.943 | SHP2 N-SH2 domain L43F 0.781 | SHP2 N-SH2 domain T42A 0.608 | SHP2 N-SH2 domain T52S 0.629 | [2] 0.776

B16: FGFR3_Y648_K650E_YF (peptide)
chain: HNLDFYKETTN
inactive: SHP2 C-SH2 domain E139D 1.12 | [1] 1.07 | SHP2 N-SH2 domain L43F 1.49 | SHP2 N-SH2 domain T42A 0.988 | SHP2 N-SH2 domain T52S 0.831 | [2] 1.05

B17: FGFR3_Y647_K650Q_YF (peptide)
chain: VHNLDYFKQTT
inactive: SHP2 C-SH2 domain E139D 0.897 | [1] 0.675 | SHP2 N-SH2 domain L43F 0.811 | SHP2 N-SH2 domain T42A 0.612 | SHP2 N-SH2 domain T52S 0.882 | [2] 1.11

B18: FGFR3_Y647_K650Q (peptide)
chain: VHNLDYYKQTT
inactive: SHP2 C-SH2 domain E139D 1.1 | [1] 1.26 | SHP2 N-SH2 domain L43F 1.25 | SHP2 N-SH2 domain T42A 1 | SHP2 N-SH2 domain T52S 0.837 | [2] 1.32

B19: FGFR1_Y766_L769V (peptide)
chain: TSNQEYLDVSM
inactive: SHP2 C-SH2 domain E139D 0.674 | [1] 0.717 | SHP2 N-SH2 domain L43F 0.824 | SHP2 N-SH2 domain T42A 0.667 | SHP2 N-SH2 domain T52S 0.665 | [2] 0.8
